According to PubChem BioAssay AID1508624 (National Center for Advancing Translational Sciences (NCATS), 2021):
Among all 48,000 compounds or so, about 120 (0.25%) were called active. Another 4% or so got no clear call; they are omitted. The call rests on the fitted dose curve; in most records, active means well fitted activation curve with a large enough effect; inconclusive means small, poorly fitted or top-dose-only effect, or another doubt; inactive means no such curve, though single readings can be large or run the other way. The list shows a part of the results.

Assay: Primary qHTS for Identification of Small Molecule Activators of Huntingtin-Antisense Promoter Activity; further: nearly all actives have a fitted effect of over 55% in size
Conditions: HEK293 HTT-AS promoter firefly luciferase reporter, 24 h; series mostly up to 57.5 µM; activity change, positive = activation: at the top concentration
Outline: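 HEK293 cells carrying firefly luciferase reporters were seeded at 2,500 per well in Opti-MEM and cultured for 24 h. They were then treated with compounds at up to 57.5 uM final for 24 h at 37 degrees C before Dual-Glo luminescence readout.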

Activity change, positive = activation, inactive:
CCOC(=O)c1cnn(-c2ccc(C(=O)Nc3ccc(OC(F)(F)F)cc3)cc2)c1N 0.251%
CC(=O)Nc1ccc(NC(=O)C2CCCN(S(=O)(=O)c3ccc4c(c3)CCCC(=O)N4)C2)cc1 (stereo not given) -2.3%
Cc1ccc(N(CC(=O)NCCc2ccccc2C)S(=O)(=O)N(C)C)cc1 -21.5%
COc1ccccc1CNC(=O)c1cccc(N2CCCS2(=O)=O)c1 2.52%
CCOC(=O)c1ccc(NC(=O)C2CC(=O)NC(=Nc3ccc(C)c(C)c3)S2)cc1 (stereo not given) -29.6%
COc1ccccc1CNC(=O)Cn1c(=O)oc2cc(S(=O)(=O)N3CCCC3)ccc21 -31.8%
CCCCN(C)CCNC(=O)c1ccc(Cn2c(=O)[nH]c3cc(OC)c(OC)cc3c2=O)cc1 2.42%
COc1ccc(-c2noc(N(c3ccc(F)c(Cl)c3)c3nc(-c4ccc(OC)c(OC)c4)no3)n2)cc1OC -39.4%
COc1cc(-c2nc(S(=O)(=O)c3ccc(Br)cc3)c(N3CCOCC3)o2)cc(OC)c1OC -20.1%
COc1ccc(Br)cc1C(=O)Nc1cccc2ccc(C)nc12 6.58%
CCc1nc2nc(C)cc(Nc3cc(Cl)ccc3C)n2n1 -18.8%
CCc1ccc(CNC(=O)c2ccc3c(Cl)c4c(nc3c2)CCCC4)cc1 0.264%
COc1ccc(Cl)cc1-n1nnc(-c2nc(-c3ccccc3)no2)c1C 11.3%
Cn1c(SCC(=O)Nc2ccccc2)nnc1-c1ccccc1 9.79%
COc1ccc(-c2nc3cc(C(C)C)ccc3o2)cc1NC(=O)c1ccccc1[N+](=O)[O-] -21.4%
O=C1OC2(c3ccc(O)cc3Oc3cc(O)ccc32)c2ccccc21 -7.21%
COc1ccc2c(c1)c(=O)c(C(=O)c1ccc(C)c(C)c1)cn2CC(=O)Nc1ccc2c(c1)OCCO2 -9.21%
CCOc1ccccc1CNC(=O)CCn1c(=O)c2cccn2c2ccc(F)cc21 -17.7%
Cc1ccc(Cn2c(CN3CCC(C(=O)NCc4ccccc4C)CC3)cc3ccccc32)cc1 -20.5%
COc1ccc(NC(=O)C2COc3ccccc3C2)cc1Cl (stereo not given) 23.9%
Cc1ccc2c(n1)Oc1ccc(C(C)C(=O)OCC(=O)N(C)C)cc1C2 (stereo not given)
COc1ccccc1N1CCN(C(=O)Cn2c(=O)n3nc(-c4ccc(C)cc4)nc3c3ccccc32)CC1 8.8%
CC(C)Cc1ccc(S(=O)(=O)N2CCC(c3ccncc3)CC2)cc1 -79.8%
COc1ccc(NC(=O)c2cccc(N3CCCS3(=O)=O)c2)cc1OC 27.9%
COC(=O)c1ccc(NC(=O)CCS(=O)(=O)c2ccc(Br)s2)cc1 -30.9%
Cc1nc(N2CCCC2)ncc1C(=O)NCc1cccc(Cl)c1 -1.19%
CCc1ccc(NC(=O)CSc2nc3ccccc3nc2Cc2ccc(C)cc2)cc1 -6.16%
COc1ccc(C)cc1NC(=O)CN1c2ccccc2S(=O)(=O)c2ccccc21 -22.6%
Cc1nnc(N2C(=O)c3oc4ccccc4c(=O)c3C2c2ccc(C(C)(C)C)cc2)s1 (stereo not given) -12.2%
COc1ccc(Cl)cc1NC(=O)Cn1ncc2c3ccccc3n(C)c2c1=O -14.9%
CCCN(Cc1cccs1)C(=O)Nc1cc(Cl)ccc1C -4.96%
Cc1nn(CC(=O)NCc2ccc(F)cc2)c2ccccc12 -5.16%
CCCCCCCCCCCCCCNCCO -6.1%
Cc1ccc2[nH]c3c(=O)n(CC(=O)NCc4ccco4)ncc3c2c1 -6.67%
O=C(NCc1ccc(Cl)cc1)c1ccc2c(Cl)c3c(nc2c1)CCCC3 -30.8%
Cc1ccc(C)c(N2CCN(C(=O)CCC(=O)Nc3ccc4nc(N5CCCCC5)cc(C)c4c3)CC2)c1 -5.57%
Cc1ccc(OCCSc2nnc(-c3cccs3)o2)cc1Cl -15.3%
CCOC(=O)c1cccc(NC(=O)CCCn2nc(C)c3c(C)n(-c4ccccc4)nc3c2=O)c1 -3.33%
CCOC(=O)c1c(C)n(-c2ccccc2)c2ccc(OC(=O)c3ccccc3NC(=O)C(C)C)cc12 -51.5%
CCOC(=O)c1ccc2nc(C)cc(Nc3cccc(C(=O)O)c3)c2c1 -7.07%
Cc1ccc2c(=O)cc(C(=O)Nc3sc4c(c3C(=O)NCc3ccco3)CCC4)oc2c1 8.89% [at 11.5 µM, percent change from vehicle, -100% = no light]
CC1=C(C(=O)OCc2ccc(C)cc2)C(c2ccccc2F)CC(=O)N1 (stereo not given) -42.5%
O=C(NCc1ccccc1F)C1CCN(c2nnc(-n3cccc3)s2)CC1 -12.4%
COc1cc(NC(=O)CCc2c(C)nn(-c3ccc(N4CCOCC4)nn3)c2C)cc(OC)c1OC 4.14%
COc1ccc2c(c1)c(=O)c(C(=O)c1ccccc1)cn2CC(=O)Nc1ccc2c(c1)OCCO2 -27.3%
COCCNC(=O)c1ccc2c(=O)n(CCc3ccccc3)c(SCC(=O)CC(=O)OC)nc2c1 -7.97%
COc1cccc(-c2nc(S(=O)(=O)c3ccccc3)c(N3CCCCC3)o2)c1 7.29%
CCC(C)NC(=O)CSc1nc2cc3c(cc2c(=O)n1CCCC(=O)NCCc1ccc(OC)c(OC)c1)OCO3 (stereo not given) -13.8%
Cc1cccc(OCCSc2nc3ccccc3n2CC(=O)N2CCOCC2)c1 -17.7%
COc1ccccc1CNC(=O)c1ccc(CS(=O)(=O)c2c(Cl)cccc2Cl)o1 -18.1%
CC(=O)OCC1=C(C(=O)O)N2C(=O)[C@@H](NC(=O)CSc3ccncc3)[C@H]2SC1 2.59%
CCc1ccc(CNC(=O)c2c3c(nc4ccccc24)C(=O)N(C2CCCCC2)C3)cc1 -21.9%
CCCn1c(=O)c2sccc2n2c(CCCC(=O)N3CCN(c4ccccc4OC)CC3)nnc12 3.06%
CCOC(=O)c1c(C)[nH]c(C)c1S(=O)(=O)N(C)CC(=O)Nc1cc(Cl)ccc1C -15.5%
CCOC(=O)c1ccc(N2C(=O)c3[nH]nc(-c4ccc(C)cc4)c3C2c2ccc(O)c(OCC)c2)cc1 (stereo not given) -49.7%
COc1cc2c(=O)c(C(=O)c3ccc(C)c(C)c3)cn(Cc3ccccc3F)c2cc1OC -33.3%
Cc1ccccc1-c1nnn(CC(=O)Nc2sc3c(c2C#N)CCC(C(C)(C)C)C3)n1 (stereo not given) -12.8%
CCc1ccc(NC(=O)Cn2c(=O)n(CCCCC(=O)NCCc3ccc(Cl)cc3)c(=O)c3ccccc32)cc1 -2.33%
Cc1ccc2ncc(C(=O)Nc3ccc(OC(F)(F)F)cc3)c(=O)n2c1 0.686%
O=c1[nH]c2ccc(NCc3ccc(-c4ccc(Br)cc4)o3)cc2[nH]1 -20.4%
